# According to publication PMC4336329 (PLoS ONE, 2015):
# The campaign covered roughly 310,000 compounds. About 14,000 (4.5%) showed an effect of 50% or more. Effects have a minus sign here. Some of the results follow.
# Biological target: human ether-à-go-go-related gene (hERG) potassium channel (human, UniProt Q12809)
# Test: primary screen, population patch clamp on CHO cells stably expressing hERG
# 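Also: peak tail current of the secondary pulse compared with the same well before compound.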
# human ether-à-go-go-related gene (hERG) potassium channel, sequence (Q12809 whole entry, looked up): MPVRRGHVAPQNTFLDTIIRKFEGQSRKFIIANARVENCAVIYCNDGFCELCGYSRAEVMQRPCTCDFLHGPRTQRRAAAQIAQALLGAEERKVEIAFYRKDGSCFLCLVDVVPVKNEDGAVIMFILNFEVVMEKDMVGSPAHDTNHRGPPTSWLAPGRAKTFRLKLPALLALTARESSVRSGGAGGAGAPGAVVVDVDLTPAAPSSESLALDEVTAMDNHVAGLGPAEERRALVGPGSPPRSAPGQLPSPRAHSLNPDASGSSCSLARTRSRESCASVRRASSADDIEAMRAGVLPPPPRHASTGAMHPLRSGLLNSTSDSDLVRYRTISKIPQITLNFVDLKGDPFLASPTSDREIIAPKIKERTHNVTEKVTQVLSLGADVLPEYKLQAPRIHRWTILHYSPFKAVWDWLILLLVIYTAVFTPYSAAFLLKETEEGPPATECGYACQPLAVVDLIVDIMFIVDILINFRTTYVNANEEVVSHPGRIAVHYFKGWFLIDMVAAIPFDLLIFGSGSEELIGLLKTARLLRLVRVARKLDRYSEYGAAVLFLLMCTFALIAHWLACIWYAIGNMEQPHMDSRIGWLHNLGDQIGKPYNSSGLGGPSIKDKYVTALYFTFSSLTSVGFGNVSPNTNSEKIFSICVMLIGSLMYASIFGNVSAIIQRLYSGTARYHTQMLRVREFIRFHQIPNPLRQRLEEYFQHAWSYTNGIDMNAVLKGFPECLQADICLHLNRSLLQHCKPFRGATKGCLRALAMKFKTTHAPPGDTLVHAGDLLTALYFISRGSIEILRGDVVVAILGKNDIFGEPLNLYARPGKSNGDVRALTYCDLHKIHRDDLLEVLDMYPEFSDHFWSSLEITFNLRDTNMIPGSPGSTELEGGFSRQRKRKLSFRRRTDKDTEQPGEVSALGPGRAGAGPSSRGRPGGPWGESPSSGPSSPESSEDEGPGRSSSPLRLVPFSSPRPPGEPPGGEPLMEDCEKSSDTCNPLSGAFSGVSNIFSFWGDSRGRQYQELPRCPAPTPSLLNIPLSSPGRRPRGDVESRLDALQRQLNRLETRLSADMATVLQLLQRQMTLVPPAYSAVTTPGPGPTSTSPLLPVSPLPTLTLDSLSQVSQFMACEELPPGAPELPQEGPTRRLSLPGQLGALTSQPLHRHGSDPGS
row,SMILES,"hERG current change (%, negative = inhibition) at 10uM"
1,COc1cc(NC(=O)CN2CCN(c3ccccc3)CC2)c(C)cc1[N+](=O)[O-],-7.07%
2,Cc1cc(C)cc(NC2=NCC(=O)N2Cc2ccccc2)c1,-5.49%
3,CCOC(=O)c1csc(COc2ccc(OC)cc2)n1,-34.5%
4,O=C(Nc1ncc(Cc2ccc(Cl)cc2Cl)s1)c1ccc([N+](=O)[O-])cc1,-14.4%
5,COCCCN1C(=O)C(=O)/C(=C(/O)c2ccc(OC(C)C)cc2)C1c1cccnc1 (centres unmarked),24.3%
6,O=C(O)CCC(=O)CCC(=O)c1ccccc1,11%
7,CCCCNC(=O)CSc1nc2ccc(NC(=O)CSc3nnc(COc4ccccc4C)n3C)cc2s1,-8.91%
8,Cc1cc(=O)oc(C)c1C(=O)Nc1cccc(F)c1,21.2%
9,COc1ccc(NC(=O)C2CCCC2)cc1S(=O)(=O)N1CCOCC1,-1.23%
10,CC(C)(C)C1=CC(O)(c2ccccc2)C=C(C(C)(C)C)C1=O,-13.4%
11,O=S(=O)(c1ccc2c(c1)OCCO2)N1CCN(c2nc(-c3cccnc3)nc3ccccc23)CC1,-29.9%
12,O=C(O)c1ccc(-n2nc(C(F)(F)F)c3c2-c2ccoc2CC3)cc1,16.3%
13,CC(C)(C)C(=O)NC1(C(F)(F)F)NC(=O)N(c2ccc(F)cc2)C1=O (centres unmarked),0.322%
14,COC(=O)c1cc(N2CCNCC2)nc2ccccc12.Cl,-17%
15,Cc1sc(-c2ccncc2)nc1OC(=O)c1ccc(F)cc1F,27.3%
16,COc1ccc(N2CCC(CNC(=S)Nc3cccc(C)c3)C2)cc1 (centres unmarked),-0.0408%
17,CCC1CCCCN1C(=S)NC(=O)c1ccc(F)c(S(=O)(=O)N2CCOCC2)c1 (centres unmarked),-0.888%
18,CC(C)[C@H](NC(=O)N1CC(=O)Nc2ccccc21)C(=O)Nc1nccs1,22.2%
19,S=c1[nH]nc(-c2ccccc2)n1/N=C/C=C/c1ccco1,13%
20,O=C(CCc1nnc(-c2ccsc2)o1)N1CCCCC1CCn1ccnc1 (centres unmarked),-28.1%
21,c1coc(C2OCC3(CO2)COC(c2ccco2)OC3)c1 (centres unmarked),11.4%
22,Cc1cc(C(=O)Nc2ccccc2N2CCOCC2)c(C)o1,-18.1%

row,SMILES,"hERG current change (%, negative = inhibition) at 10uM"
1,CCc1cccc(C)c1NC(=O)CSc1nc(-c2ccccc2F)nc2nc[nH]c12,3.31%
2,COc1ccc(C(=O)N/C(=C\c2ccccc2)C(=O)Nc2ccccc2C(=O)O)cc1,11.3%
3,Fc1ccc(Cn2nnc(-c3ccc(Cl)cc3)n2)cc1,18.4%
4,CC(=C/C(=O)[O-])/C=C/c1ccco1.[Na+],12.5%
5,CCc1cc(=O)oc2c(C)c(OCC(=O)NCCCN3CCCC3=O)ccc12,-7.32%
6,COc1cccc(CN2CCN(C(=O)Cc3ccccc3OC)CC2)c1,20.2%
7,COc1ccc(OCCSc2nnc(CCNC(=O)c3ccc(Cl)c(Cl)c3)n2C)cc1,-3.13%
8,O=C(CCNC(=O)c1ccc(Br)cc1)NC1CCCCCC1,-5.25%
9,O=C(Nc1ccccc1)N1N=C(c2ccc(F)cc2)CC1c1ccc(F)cc1 (centres unmarked),-10.1%
10,Cc1ccc(NC(=O)COc2ccccc2)c(NC(=O)c2ccco2)c1,-9.89%
11,OCCNC(=S)Nc1cc(Cl)cc(Cl)c1,12.4%
12,O=C(/C=C/c1ccco1)Nc1cccnc1Cl,2.52%
13,O=C(Nc1c(Cl)cc(Cl)cc1C(=O)NCCN1CCOCC1)c1cccc([N+](=O)[O-])c1,-13.9%
14,c1ccc2c(NC3CCCC3)nnc(NC3CCCC3)c2c1,-74.9%
15,O=C(/C=C/c1ccccc1)Nc1ccc(S(=O)(=O)N2CCOCC2)cc1,4.08%
16,COc1ccc(-c2nc(CS(=O)CC(=O)NCc3ccc4c(c3)OCO4)c(C)o2)cc1 (centres unmarked),-40%
17,CCSc1nnc(NC(=O)CSC2=NN3CCCC(=O)N=C3S2)s1,0.749%
18,COc1ccc2[nH]cc(C(=O)N3CCCCC3)c(=O)c2c1,8.17%
19,NC(=O)CC(NC(=O)c1ccccc1)c1ccc(NCC2CC2)c([N+](=O)[O-])c1 (centres unmarked),-35.3%
20,O=C(O)C(O)C(O)c1nc2ccccc2[nH]1 (centres unmarked),13.8%
21,CN1CCc2c(sc3c2c(=O)n(-c2ccccc2)c2nnc(SCc4ccc(Cl)cc4)n32)C1,-2.08%
22,COc1ccc(OC)c(NC=C2C(=O)OC(C)(C)OC2=O)c1,0.742%
